{"source": "PubChem BioAssay (Tox21)", "key": {"[1]": {"test": "qHTS assay to identify small molecule antagonists of the estrogen related receptor (ERR) signaling pathway from Tox21 library - cell viability counter screen (AID 1224834); also: nearly all actives have a fitted effect of over 30% in size", "conditions": "ERR reporter cells viability, CellTiter-Fluor, 17.5 h; series mostly up to 92.4 µM", "outline": "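Viability readout (CellTiter-Fluor fluorescence, 30 min at 37 C) multiplexed with the ERR assay; cells treated 17.5 h at 37 C with compounds delivered in DMSO.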"}, "[2]": {"test": "qHTS assay to identify small molecule antagonists of the constitutive androstane receptor (CAR) signaling pathway - cell viability counter screen (AID 1224837); also: nearly all actives have a fitted effect of over 45% in size", "conditions": "HepG2-CYP2B6-hCAR viability, CellTiter-Fluor, 23 h, co-treated with 50 nM CITCO; series mostly up to 92.4 µM", "outline": "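Fluorescence from CellTiter-Fluor served as the viability signal. Human hepatoma HepG2 cells stably bearing hCAR and CYP2B6-2.2kb received compound plus CITCO (50 nM final) for 23 hr.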"}, "[3]": {"test": "qHTS assay to identify small molecule antagonists of the estrogen related receptor signaling pathway with the pleiotropic PPARgamma coactivator (PGC) from Tox21 10K library - cell viability counter screen (AID 1224840; active = well fitted cell-killing curve with a large enough effect in the repeat runs, not every such curve was filed as active; inconclusive = weak or mixed curves, or effect the other way; inactive = no such curve, though single readings can be large or run the other way; also: nearly all actives have a fitted effect of over 40% in size)", "conditions": "PGC/ERR reporter cells viability, CellTiter-Fluor, 17.5 h; series mostly up to 92.4 µM", "outline": "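Compounds in DMSO, alongside positive and negative controls, were pinned onto PGC/ERR cells (2,000 per well). Exposure lasted 17.5 hours at 37 C, followed by a 30-minute CellTiter-Fluor incubation and fluorescence reading.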"}, "[4]": {"test": "qHTS assay to identify small molecule agonists of the hypoxia (HIF-1) signaling pathway - cell viability counter screen (AID 1224844; calls by dose curve; also: nearly all actives have a fitted effect of over 50% in size)", "conditions": "HRE-bla ME-180 viability, CellTiter-Glo luminescence, 17 h; series mostly up to 76.8 µM", "outline": "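Luminescent ATP content (CellTiter-Glo, 30 min, room temperature) served as the viability measure in HRE-bla ME-180 cells exposed to compounds for 17 hrs in low-serum medium (0.5% dialyzed FBS).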"}, "[5]": {"test": "qHTS assay to identify small molecule agonists of H2AX (AID 1224845; active = well fitted activation curve with a large enough effect in the signal ratio in the repeat runs, not every such curve was filed as active; inconclusive = weak or mixed curves; the % refers to the signal ratio; as to activation (H2AX phosphorylation): % is scaled to controls: 0 for no effect and ±100 for the full control effect)", "conditions": "CHO-K1 phospho-H2AX Ser139 HTRF, 3 h; activation (H2AX phosphorylation): at 154 µM (top of the series) unless noted", "outline": "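Phospho-H2AX Ser139 measured by HTRF (ex 320 nm; em 665 and 620 nm) after 24 hr antibody incubation. Compounds, 15 concentrations, 0.76% DMSO, were applied to CHO-K1 cells for 3hr at 37C before lysis.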"}, "[6]": {"test": "qHTS assay to identify small molecule agonists of the hypoxia (HIF-1) signaling pathway (AID 1224846; active = well fitted activation curve with a large enough effect in the signal ratio in the repeat runs, not every such curve was filed as active; inconclusive = weak or mixed curves; the % refers to the signal ratio)", "conditions": "HRE-bla ME-180 cells, beta-lactamase ratio, 17 h; activation: at 76.8 µM (top of the series) unless noted", "outline": "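Measured by blue/green FRET after loading CCF4-AM: beta-lactamase expressed from a hypoxia response element in ME-180 cells. Test agents were delivered in DMSO and left 17 hrs; cells had been plated 5 hrs earlier in low-serum (0.5% dialyzed FBS) medium.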"}, "[7]": {"test": "qHTS assay to identify small molecule agonists of H2AX - cell viability counter screen (AID 1224847; calls by dose curve; also: nearly all actives have a fitted effect of over 30% in size)", "conditions": "CHO-K1 viability, CellTiter-Glo luminescence, 3 h; series mostly up to 154 µM", "outline": "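Viability of CHO-K1 (wild type) cells after 3 hr compound exposure was measured by CellTiter-Glo luminescence.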"}, "[8]": {"test": "qHTS RealTime-Glo MT Cell Viability Assay in HEK293 cells - 32 hour (AID 1224868); also: nearly all actives have a fitted effect of over 50% in size", "conditions": "RealTime-Glo luminescence; series mostly up to 76.8 µM", "outline": "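Cells + reagent dispensed (600 cells/well, HEK293) → 5 h at 37 C/5% CO2 → 23 nL compound in DMSO pinned → 40 h at 37 C → luminescence read at 0, 8, 16, 24, 32, 40 h.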"}, "[9]": {"target": "Thyrotropin receptor (Homo sapiens) (UniProt P16473)", "sequence (P16473 whole entry, looked up)": "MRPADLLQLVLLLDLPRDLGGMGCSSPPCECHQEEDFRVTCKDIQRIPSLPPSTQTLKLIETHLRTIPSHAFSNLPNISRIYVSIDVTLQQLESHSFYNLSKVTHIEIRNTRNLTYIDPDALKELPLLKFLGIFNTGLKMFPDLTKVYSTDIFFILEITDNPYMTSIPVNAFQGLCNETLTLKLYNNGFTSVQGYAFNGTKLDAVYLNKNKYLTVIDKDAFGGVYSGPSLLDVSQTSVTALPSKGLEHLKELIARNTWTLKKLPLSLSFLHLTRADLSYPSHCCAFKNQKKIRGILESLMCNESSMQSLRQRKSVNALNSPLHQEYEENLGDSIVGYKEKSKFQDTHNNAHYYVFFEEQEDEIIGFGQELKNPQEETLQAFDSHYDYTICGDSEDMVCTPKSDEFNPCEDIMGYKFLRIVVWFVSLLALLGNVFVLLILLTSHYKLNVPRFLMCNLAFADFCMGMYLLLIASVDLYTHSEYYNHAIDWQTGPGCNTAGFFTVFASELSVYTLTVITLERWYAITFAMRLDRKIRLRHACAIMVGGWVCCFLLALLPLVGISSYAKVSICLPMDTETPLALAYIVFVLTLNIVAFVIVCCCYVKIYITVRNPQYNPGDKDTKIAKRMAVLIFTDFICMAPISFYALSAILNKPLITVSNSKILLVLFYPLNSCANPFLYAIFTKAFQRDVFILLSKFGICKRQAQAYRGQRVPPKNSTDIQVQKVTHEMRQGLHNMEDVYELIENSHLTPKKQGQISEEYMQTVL", "test": "qHTS assay to identify small molecule agonists of the thyroid stimulating hormone receptor (TSHR) signaling pathway (AID 1224843; calls by dose curve; also: nearly all actives have a fitted effect of over 45% in size; as to activation: % is scaled to controls: 0 for no effect and ±100 for the full control effect)", "conditions": "TSHR-HEK293 cells, cAMP HTRF, agonist mode, 30 min; activation: at 92.4 µM (top of the series) unless noted", "outline": "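HEK293 cells stably bearing the thyrotropin receptor were plated at 800 cells/well and challenged with compound (30 min, RT). Accumulated cAMP was quantified via cAMP-d2 competing for cryptate-tagged antibody.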"}, "[10]": {"test": "qHTS RealTime-Glo MT Cell Viability Assay in HepG2 cells - 24 hour (AID 1224867); also: nearly all actives have a fitted effect of over 50% in size", "conditions": "RealTime-Glo luminescence; series mostly up to 76.8 µM", "outline": "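Real-time, nonlytic viability: 600 HepG2 cells/well mixed with NanoLuc enzyme plus prosubstrate; 5 h settle, compound (DMSO) added by pintool; luminescence monitored over 40 h at 37 C.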"}, "[11]": {"test": "qHTS assay to identify small molecule antagonists of the estrogen related receptor (ERR) signaling pathway from Tox21 library (AID 1224848); also: nearly all actives have a fitted effect of over 50% in size", "conditions": "ERR reporter cell line, luciferase antagonist mode, 18 h; series mostly up to 92.4 µM", "outline": "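Reading was by luminescence 30 min after ONE-Glo addition. Before that, ERR cells at 2,000 per well had rested 6 h at 37 C/5% CO2 and then received pin-tooled compounds in DMSO for 18 h at 37 C.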"}, "[12]": {"target": "Nuclear receptor subfamily 1 group I member 3 (Homo sapiens) (UniProt Q14994)", "sequence (Q14994 whole entry, looked up)": "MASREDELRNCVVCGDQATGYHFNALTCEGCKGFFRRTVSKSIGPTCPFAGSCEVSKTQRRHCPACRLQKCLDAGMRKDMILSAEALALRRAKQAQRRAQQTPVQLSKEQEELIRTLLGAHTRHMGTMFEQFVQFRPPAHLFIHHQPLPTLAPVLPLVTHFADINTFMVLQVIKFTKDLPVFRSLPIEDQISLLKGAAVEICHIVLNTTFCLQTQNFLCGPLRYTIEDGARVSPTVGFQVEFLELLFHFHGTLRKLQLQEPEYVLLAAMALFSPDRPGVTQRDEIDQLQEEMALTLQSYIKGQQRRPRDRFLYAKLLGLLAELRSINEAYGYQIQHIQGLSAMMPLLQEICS", "test": "qHTS assay to identify small molecule agonists of the constitutive androstane receptor (CAR) signaling pathway (AID 1224839); also: nearly all actives have a fitted effect of over 15% in size", "conditions": "HepG2 hCAR CYP2B6-luciferase, agonist mode, 24 h; series mostly up to 92.4 µM", "outline": "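Stable hCAR/CYP2B6-2.2kb HepG2 line in DMEM with 10% FBS; compounds (15 concentrations) and 0.75 uM PK11195 final, 24 h at 37 C/5% CO2, then ONE-Glo luminescence after 30 min.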"}, "[13]": {"target": "Nuclear receptor subfamily 1 group I member 3 (Homo sapiens) (UniProt Q14994)", "test": "qHTS assay to identify small molecule antagonists of the constitutive androstane receptor (CAR) signaling pathway (AID 1224838); also: nearly all actives have a fitted effect of over 40% in size", "conditions": "HepG2-CYP2B6-hCAR luciferase, CITCO-stimulated, 24 h; series mostly up to 92.4 µM", "outline": "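Quantitative HTS in double-stable HepG2-CYP2B6-hCAR cells. After 4 h plating, cells get compound (15 concentrations) and CITCO at 50 nM final, incubate 24 h at 37 C, then ONE-Glo luminescence is read.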"}, "[14]": {"test": "qHTS assay to identify small molecule antagonists of the estrogen related receptor signaling pathway with the pleiotropic PPARgamma coactivator (PGC) from Tox21 10K library (AID 1224841; call rule not given here)", "conditions": "PGC/ERR reporter cell line, ONE-Glo luciferase, 18 h; series mostly up to 92.4 µM", "outline": "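Compound exposure ran 18 hours at 37 C in PGC/ERR cells (2,000/well) that had first rested 6 hours in a 37 C/5% CO2 incubator. Luciferase activity was then detected with One-Glo after a 30-minute room-temperature step.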"}}, "note": "“And” between values parts separate entries of the source, which are not always exact repeats. Identical values can stand only once. The shares of active, inactive and inconclusive entries below differ from those in the screen. For some assays here: Potencies of inconclusive entries are doubtful fits and often do not repeat. The source made the active and inactive calls. Unless noted, calls follow the shape of the dose curve; as a rule, active = well fitted curve in the direction sought with a large enough effect in the repeat runs; inconclusive = weak or mixed curves; inactive = no such curve, though single readings can be large; an effect the other way counts as inactive or inconclusive. Potency is read from the fitted curve at half-maximal effect; tags tell the direction and shape of the fitted curve or compound fluorescence and quenching."}
{"smiles": "C=CC(=O)OCCCCCCOC(=O)C=C", "values": [{"measurement": "Potency", "setting": "[1]", "result": "inconclusive: 69.4 µM [cytotoxic, single point] and active: 54.5 µM"}, {"measurement": "Potency", "setting": "[2]", "result": "inconclusive: 61.9 µM [cytotoxic, partial curve, poor fit] and inconclusive: 61.1 µM [cytotoxic]"}, {"measurement": "Potency", "setting": "[3]", "result": "inconclusive: 55.1 µM [cytotoxic, partial curve] and active: 48.6 µM"}, {"measurement": "Potency", "setting": "[4]", "result": "inconclusive: 24.8 µM [cytotoxic, single point] and inconclusive: 54.9 µM [cytotoxic, single point]"}, {"measurement": "Potency", "setting": "[5]", "result": "active: 114 µM"}, {"measurement": "Potency", "setting": "[6]", "result": "inconclusive: 55.6 µM [single point] and inconclusive: 54.9 µM"}, {"measurement": "Potency", "setting": "[7]", "result": "inconclusive: 90.9 µM [rising, partial curve] and inconclusive: 101 µM [rising, partial curve]"}, {"measurement": "Potency", "setting": "[8]", "result": "inconclusive: 49.6 µM [cytotoxic, single point]"}]}
{"smiles": "c1cc(C(c2ccc(OCC3CO3)cc2)c2ccc(OCC3CO3)cc2)ccc1OCC1CO1", "note": "(stereo not given)", "values": [{"measurement": "Potency", "setting": "[1]", "result": "inconclusive: 54.5 µM [cytotoxic, partial curve, poor fit]"}, {"measurement": "Potency", "setting": "[3]", "result": "inconclusive: 61.1 µM [cytotoxic]"}, {"measurement": "Potency", "setting": "[9]", "result": "inactive"}, {"measurement": "Potency", "setting": "[6]", "result": "inconclusive: 49 µM [falling, single point]"}, {"measurement": "Potency", "setting": "[10]", "result": "inconclusive: 54.9 µM [falling, partial curve, poor fit]"}, {"measurement": "Potency", "setting": "[8]", "result": "inconclusive: 61.6 µM [cytotoxic, single point]"}]}
{"smiles": "C[C@H](CCC(=O)O)[C@H]1CC[C@H]2[C@@H]3CC[C@@H]4C[C@H](O)CC[C@]4(C)[C@H]3C[C@H](O)[C@]12C", "values": [{"measurement": "Potency", "setting": "[1]", "result": "inconclusive: 68.8 µM [cytotoxic, single point]"}, {"measurement": "Potency", "setting": "[2]", "result": "inactive"}, {"measurement": "Potency", "setting": "[3]", "result": "inconclusive: 77.2 µM [cytotoxic, partial curve, poor fit]"}, {"measurement": "activation", "setting": "[9]", "result": "inconclusive: 28.7%"}, {"measurement": "Potency", "setting": "[4]", "result": "inconclusive: 55.1 µM [cytotoxic]"}, {"measurement": "Potency", "setting": "[5]", "result": "inactive"}, {"measurement": "Potency", "setting": "[8]", "result": "inconclusive: 61.9 µM [cytotoxic, partial curve, poor fit]"}]}
{"smiles": "CCCCN1C(=O)[C@@H]([C@H](O)C2CCCCC2)NC(=O)C12CCN(Cc1ccc(Oc3ccc(C(=O)O)cc3)cc1)CC2", "values": [{"measurement": "Potency", "setting": "[1]", "result": "inconclusive: 54.5 µM [cytotoxic, partial curve]"}, {"measurement": "Potency", "setting": "[2]", "result": "inconclusive: 54.5 µM [cytotoxic, partial curve, poor fit]"}, {"measurement": "Potency", "setting": "[3]", "result": "inconclusive: 61.1 µM [cytotoxic, partial curve, poor fit]"}, {"measurement": "Potency", "setting": "[4]", "result": "inconclusive: 21.9 µM [cytotoxic, full curve]"}, {"measurement": "Potency", "setting": "[11]", "result": "inconclusive: 68.6 µM [inhibitor, single point]"}]}
{"smiles": "O=CC=C(c1ccccc1)c1ccccc1", "values": [{"measurement": "Potency", "setting": "[1]", "result": "active: 27.5 µM"}, {"measurement": "Potency", "setting": "[12]", "result": "inconclusive: 34.7 µM [activator, partial curve]"}, {"measurement": "Potency", "setting": "[3]", "result": "inconclusive: 24.5 µM [cytotoxic, full curve]"}, {"measurement": "Potency", "setting": "[9]", "result": "inconclusive: 69.1 µM [activator]"}, {"measurement": "Potency", "setting": "[5]", "result": "inconclusive: 45.4 µM [activator, partial curve]"}, {"measurement": "Potency", "setting": "[6]", "result": "inconclusive: 55.4 µM [falling, single point]"}, {"measurement": "Potency", "setting": "[7]", "result": "inconclusive: 128 µM [cytotoxic, single point]"}]}
{"smiles": "CCC1=C[C@@H]2CN(C1)Cc1c([nH]c3ccccc13)[C@@](C(=O)OC)(c1cc3c(cc1OC)N(C)[C@H]1[C@@](O)(C(=O)OC)[C@H](OC(C)=O)[C@]4(CC)C=CCN5CC[C@]31[C@@H]54)C2", "values": [{"measurement": "Potency", "setting": "[1]", "result": "active: 0.0188 µM"}, {"measurement": "Potency", "setting": "[13]", "result": "active: 0.106 µM"}, {"measurement": "Potency", "setting": "[3]", "result": "inconclusive: 0.335 µM [cytotoxic, partial curve, poor fit]"}, {"measurement": "Potency", "setting": "[14]", "result": "inactive"}, {"measurement": "Potency", "setting": "[4]", "result": "inconclusive: 0.0301 µM [rising, full curve]"}, {"measurement": "Potency", "setting": "[5]", "result": "inactive"}, {"measurement": "Potency", "setting": "[10]", "result": "inconclusive: 10.7 µM [falling, partial curve]"}]}
{"smiles": "COC(=O)[C@H]1[C@H]2C[C@@H]3c4[nH]c5cc(OC)ccc5c4CCN3C[C@H]2C[C@@H](OC(=O)c2cc(OC)c(OC)c(OC)c2)[C@@H]1OC", "values": [{"measurement": "Potency", "setting": "[1]", "result": "inconclusive: 24.3 µM [cytotoxic, full curve] and inconclusive: 29.8 µM [cytotoxic, partial curve]"}, {"measurement": "Potency", "setting": "[3]", "result": "inconclusive: 61 µM [cytotoxic, partial curve, poor fit] and inconclusive: 35.3 µM [cytotoxic, partial curve]"}, {"measurement": "Potency", "setting": "[14]", "result": "inconclusive: 26.6 µM [falling, partial curve]"}, {"measurement": "Potency", "setting": "[9]", "result": "inconclusive: 21.6 µM [activator, partial curve] and inconclusive: 7.05 µM [activator, full curve]"}]}
{"smiles": "O=C(c1ccc(O)c(O)c1)c1ccc(O)cc1O", "values": [{"measurement": "Potency", "setting": "[1]", "result": "inconclusive: 68.5 µM [cytotoxic, single point]"}, {"measurement": "Potency", "setting": "[3]", "result": "inconclusive: 27.3 µM [cytotoxic, partial curve]"}, {"measurement": "Potency", "setting": "[14]", "result": "active: 68.5 µM"}, {"measurement": "Potency", "setting": "[5]", "result": "inconclusive: 25.3 µM [cytotoxic, full curve]"}, {"measurement": "Potency", "setting": "[6]", "result": "inconclusive: 48.9 µM"}, {"measurement": "Potency", "setting": "[8]", "result": "active: 27.5 µM"}]}
